# Source: the supplement of paper PMC10338343
# ± gives the standard deviation. Over roughly 6,600 sequences, “pre-steady-state target cleavage rate” has its median near 0.07; the highest 2% begin near 0.72. Only a part is listed here, and it is no random draw.
# System: MIWI (PIWIL1) piRISC loaded with Kctd7 piRNA (30 nt)
# Assay: pre-steady-state target cleavage rate (min^-1); MIWI and MILI are mouse PIWI proteins and EfPiwi is from a freshwater sponge; tags in brackets are library labels; higher = faster piRNA-guided slicing of the target
# Conditions: guide: Kctd7 piRNA 5'p-UGUUAAUCUCUCAGAGAAGGUGACAGUGAU; auxiliary factor: 500 nM mouse GTSF1
# Procedure: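 Cleave-'n-Seq: a library of target RNAs (target site embedded in constant flanks, ACAGCATTCCGCGTTAGTGATATCCG... 5' flank; DNA-blocked outside the site) at 0.1 nM was incubated with 1 nM active mouse MILI or MIWI piRISC (synthetic 5'-monophosphorylated piRNA guide) with or without 500 nM mouse GTSF1 at 33 °C for 1 min to 16 h. Uncleaved targets were sequenced and normalised to non-target controls, and the pooled three trials were fitted to a burst-and-steady-state model to give the pre-steady-state cleavage rate (min^-1; k3 is constrained to at most 1e-4). Sequence is the target site only; target names encode pairing extent (gX:gY) and contiguous / 1-mismatch / 2-mismatch / bulge geometry. Fits with R² ≤ 0 are excluded.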
row,Sequence,pre-steady-state target cleavage rate
1,UACUGAGUCACCUUCUCUGAGAGAUUAUGA,0.144 ± 0.025
2,UAGAGUCUCACCUUCUCUGAGAGAUUAACA,0.655 ± 0.033
3,UUCACUGUCAGCUACUCUGAGAGAUUAACA,0.574 ± 0.037
4,UAGUGUGUCACGUUCUCUGAGAGAUUAUCA,0.134 ± 0.014
5,UACACUGUCACCUUCUCACAGAGAUUAAGA,0.00665 ± 0.0053
6,UAGUGACACAGCUUCUCUGAGAGAAUAACA,0.0206 ± 0.0056
7,UAGUGACUCAGCUUCUCUGAGAGAUUUACA,0.054 ± 0.006
8,UUCACUGUCAGCUUCACUGAGAGAUUAACA,0.529 ± 0.026
9,UACACUGUCACCUUCUCUGAGAGUAAAACA,0.0984 ± 0.023
10,UAGUGACACACCUUCUCUGAGAGAUUAACG [g2:g22:cont:t1G],0.373 ± 0.029
11,UAGACUGUCACCUUCUCUCAGAGUUUAACA,0.0473 ± 0.0063
12,UAGUCUGUCUCCUUCUCUGAGAGAUUAUGA,0.0296 ± 0.0076
13,UAGUGACUCACCUUCACUGAGAGAUUAAGA,0.216 ± 0.035
14,UAGUGACUCACCUUCUCUGAGAGAUUUAGA,0.0446 ± 0.01
15,AUGACUGUCACCUUCUCUGAGAGAUAUUGA,0.00608 ± 0.0033
16,UAGUGACUCACCUUCUCUGAGAGAUUAAACA,0.448 ± 0.045
17,UAGUGACACACCAUUCUCUGAGAGAUUAACA,0.245 ± 0.022
18,UAGUGAGUCACCUUCACUGAGAGAUUAUCA,0.305 ± 0.055
19,UAGUGUGUCACCUUCUCUGAGAGAUUCACA,0.251 ± 0.046
20,UAGUGACAGACCUUCUCUGAGUGAUUAACA,0.0113 ± 0.0027
21,UAGUGUGUCACCUACUCUGAGAGAUUUUGA,0.0192 ± 0.0063
22,AUCACUCAGACCUUCUCUGAGAGAUUAAGA,0.00431 ± 0.0034
23,UAGUGUGUCACCUUCUCUGAGAGAUAUACA,0.0964 ± 0.019
24,UAGUGUGUCACCUUCUCUGAGAUAUUAACA,0.24 ± 0.027

row,Sequence,pre-steady-state target cleavage rate
1,UUCACUGUCAGCUUCUCUGAGAGAUUAUGA,0.0364 ± 0.0074
2,UAGUGACACACCUUCUCUGAGAGAUUAGACA,0.149 ± 0.021
3,UAGUGACACUCCAUCUCUGAGAGAUUAACA,0.0253 ± 0.007
4,UAGACUGAGUCCUUCUCUGAGAGAUUAACA,0.123 ± 0.014
5,UAGUGACUCACCUUCUCUGAGAGAUUAAGCA,0.25 ± 0.032
6,AUCACUGUCACCUUCCUCUGAGAGAUUAACA,0.523 ± 0.029
7,UAGUCUGUCACCAACUCUGAGAGAUUAACA,0.339 ± 0.041
8,UAGUGACUCACCUUCUCUGAGAGAUUACCA,0.149 ± 0.023
9,UACACUGUCACCUUCUGUGAGAGAUAAACA,0.0876 ± 0.012
10,AUCACUGUCACCUUCUCCGAGAGAUUAACA,0.45 ± 0.069
11,AUCACAGUCACCUUCUCAGAGAGAUUAACA,0.526 ± 0.036
12,UAGUGACUCACCUUCUCUGAGAGAAUUACA,0.0897 ± 0.027
13,UAGUGUGUCACCUUUCUCUGAGAGAUUAACA,0.384 ± 0.036
14,UUCACUCACACCUUCUCUGAGAGAUAUUGA,0.0372 ± 0.011
15,UAGUCUGUCACCUUCUCUGAGAGAAAUAGA,0.00945 ± 0.0047
16,UAGUGAGAGACCUUCUCUGAGAGAUUAUGA,0.0121 ± 0.0059
17,UAGUGACAGUCCUUCUCUGAGAGAUUGACA,0.0589 ± 0.013
18,UAGUGACAGACCUUCUCUGGAGAUUAACA,0.00338 ± 0.003
19,UAGUGACAGUGGAAGUCUGAGAGAUUGACA,< 0.0001
20,AUCACACUCACCUUCUCUGAGAGAUUAUGA,0.0459 ± 0.012
21,UAGUCUGUCACCUUCUCUGAGAGAAUUUGA,0.0883 ± 0.026
22,UAGUGACAGUGGAAGAGACUGAGAUAUAACA,< 0.0001
23,UAGUGAGUCACCUUCUCUGAGAGAUUACACA,0.236 ± 0.036
24,UAGUGACAGUGGAAGAGACAGCAGAUUAACA,0.0035 ± 0.003

row,Sequence,pre-steady-state target cleavage rate
1,UAGUGAGUCACCUUCCCUGAGAGAUUAACA,0.443 ± 0.083
2,UAGUGAGUCACCUUCUCUGAGAGAUUUAACA,0.268 ± 0.031
3,UAGUGAGUCACCUUCUCUGUGAGAAUAACA,0.0538 ± 0.01
4,UAGUGACAGUGCUUCCCUGAGAGAUUAACA,0.0102 ± 0.0029
5,UUCACUGUCACCUUCUCUGAGAGAUAACA,0.136 ± 0.02
6,UAGUGACACACCUACUCUGAGAGAAUAACA,0.0111 ± 0.0041
7,UAGUCUGUCACCUUCACUGAGAGAUAUUGA,0.0402 ± 0.014
8,UAGUGACAGACCUUCCUCUGAGAGAUUAACA,0.0189 ± 0.004
9,UAGUGAGUCACCUUCUCUGAGACUUUAAGA,0.0152 ± 0.0068
10,UAGUGACACACCUUCUGUGAGAGAUUUUGA,0.00776 ± 0.0045
11,UAGUGACACACCUUCUCUGAGAGAAUUAACA,0.158 ± 0.026
12,UUGACUGACACCUUCUCUGAGAGAUUAACA,0.577 ± 0.026
13,UUCACUGUCACCUUCUGAGAGAGAUUAAGA,0.0258 ± 0.011
14,UAGUCUGUCACCUUCUCAGACAGAUUAACA,0.0153 ± 0.0044
15,UAGUGAGUCACCUUCUCUGAGAAAUUAACA,0.237 ± 0.026
16,UAGAGUGUCACCUUCUCAGAGAGAUUAACA,0.564 ± 0.029
17,AUGACUGUCACCUUGUCUGAGAGAUUAACA,0.443 ± 0.074
18,UAGUGACAGUGGAACUCUGAGAGAUUGACA,< 0.0001
19,AUCACAGUCAGCUUCUCUGAGAGAUUAACA,0.722 ± 0.03
20,UAGAUGUCACCUUCUCUGAGAGAUUAACA,0.696 ± 0.032
21,UUGUGUGUCACCUUCUCUGAGAGAUAUUGA,0.0658 ± 0.021
22,AUCACUGUCACCUUCUCUGAGAGACUAACA,0.277 ± 0.024
23,UAGUGACACAGCUUCUCUGAGACAUUAACA,0.0143 ± 0.0027
24,AUCACUGUCACCUAGACUGAGAGAUUAAGA,0.0119 ± 0.0058
